# The other results are listed elsewhere or left out. The list includes weakly bound sequences.
# Molecular target: MaxL homodimer (UniProt P61244)
# Assay: universal protein-binding microarray (PBM)
# Details: PBS-based mixture, 10 nM His-tagged protein dimer, 2% milk, 200 ng/uL BSA, 50 ng/uL salmon testes DNA, 0.02% TX-100; detection with Alexa 488 anti-His …; high values mean tight binding; most listed sequences are background and not binding sites; double strand, one strand shown
# Sequence of UniProt P61244 (P61244 whole entry): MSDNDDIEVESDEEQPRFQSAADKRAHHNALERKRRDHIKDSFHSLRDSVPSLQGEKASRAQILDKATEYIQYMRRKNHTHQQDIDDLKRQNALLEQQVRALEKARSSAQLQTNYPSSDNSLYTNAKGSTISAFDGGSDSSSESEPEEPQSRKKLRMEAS
row,Sequence,binding signal (normalized occupancy)
1,CACCAAGG,0.0757
2,CGAAGTAA,0.0697
3,ATTCTTAA,0.075
4,GCCAGAAC,0.0772
5,AACCTAAA,0.0677
6,TATCTAGA,0.0728
7,TCTTTTCA,0.0755
8,CGAGAAGA,0.0702
9,CATGTACA,0.0958
10,CGTATTAG,0.0769
11,AGGTTGAC,0.0776
12,CGGTGAGA,0.0759
13,GACTTCCA,0.0741
14,TCGATAAA,0.0738
15,GCCCTTCA,0.0726
16,GATCTTTA,0.0747
17,CCAGGTCC,0.066
18,GTGTTTAA,0.0772
19,GATTAATC,0.0681
20,AGCCGCTA,0.0678
21,CAAGGTCA,0.0762
22,GGAGCCAA,0.0767
23,AGTTGGAG,0.0724
24,TCCGGTAA,0.0716
25,ATACACCC,0.0857

row,Sequence,binding signal (normalized occupancy)
1,CTCTATGC,0.0797
2,GCCTTAAC,0.075
3,CCCAGCCC,0.0749
4,GAGCGGAC,0.0706
5,AGTCCAAA,0.0702
6,GTATCGAC,0.0744
7,CGTCAACA,0.0779
8,ACTCAGCG,0.0701
9,ACTTGTAG,0.073
10,GGACTCGA,0.0744
11,AACGGTGC,0.0733
12,CGCACGTC,0.0785
13,CATTAGGA,0.0775
14,TCTAAGAA,0.075
15,AGATGAGA,0.081
16,AACACCTA,0.0789
17,ATCCGCAT,0.0856
18,ATGTACGG,0.0785
19,TCTTACAA,0.0765
20,ATCGCTTC,0.0694
21,GTTTCAAA,0.076
22,ACTACCGG,0.0755
23,AGGTCCCC,0.0701
24,CTCGGAAA,0.067
25,CCGCAAAA,0.0702

row,Sequence,binding signal (normalized occupancy)
1,ACGACTAG,0.0769
2,AAATAGCA,0.0843
3,ATTACCAG,0.0713
4,TGATTGCA,0.0824
5,GTTCCTTA,0.0705
6,GCCATCAA,0.0778
7,GTAGGAAA,0.0761
8,CGCGAATC,0.0735
9,GGCAGAGA,0.0664
10,AGGATTCG,0.0775
11,CTCTGCGA,0.0676
12,CATAGCCG,0.073
13,TGACACAA,0.0798
14,ATCAAAAC,0.0742
15,CCCTGTGA,0.0807
16,ACAGGAAG,0.0715
17,AGAGTGAG,0.0776
18,GTACACAA,0.0805
19,AATTACAA,0.0816
20,ATGACTAG,0.0755
21,AACCGTTA,0.0771
22,CGCAGTTC,0.0712
23,CGGCGCAA,0.0711
24,GGCGGCCA,0.075
25,GTGTTTTA,0.0758

row,Sequence,binding signal (normalized occupancy)
1,ATTAACAC,0.0839
2,ATACAGAA,0.0789
3,CAAAATAA,0.0766
4,TGAAGCCA,0.0709
5,GGGGTACC,0.0706
6,CTAAGTGA,0.0719
7,CTCTGAGA,0.0756
8,AGAGACGC,0.0751
9,AAGGGCAC,0.0706
10,AAAGGAGC,0.0705
11,AGGGGTTA,0.0759
12,CATCGCAA,0.0733
13,AGCAGGGC,0.0712
14,ACTGGGGA,0.0716
15,AAATGGAT,0.0798
16,CCCTATGC,0.0769
17,AGAGACTC,0.0733
18,ATTTGCAC,0.0853
19,AAGAGTTC,0.0711
20,CCTGAGCA,0.0752
21,GAAGTGGC,0.0724
22,CGGAGTGA,0.0696
23,CCAACGCA,0.0789
24,AGTTAAAA,0.0725
25,ACAGACCA,0.0727

row,Sequence,binding signal (normalized occupancy)
1,CAGTGGGC,0.069
2,CCCAAGGC,0.0695
3,ACACAAAG,0.0736
4,TTTAAAAA,0.0713
5,CACTAAGG,0.0761
6,ACGACGAT,0.0725
7,ACCTGCTA,0.0768
8,GCTCGGCA,0.0724
9,CATATCTA,0.0831
10,CTCGGCAG,0.0663
11,AAGCTACC,0.0714
12,ACGTTTCT,0.079
13,CCGACTGA,0.0699
14,CTGTGCTA,0.0696
15,CGATAGCC,0.0708
16,AACTTTAC,0.0691
17,ATCGTGAC,0.0839
18,GGCGGCAA,0.0675
19,ATCAGGTC,0.0755
20,CTTAACCA,0.0834
21,CAGTTCTA,0.0733
22,ATCCGACC,0.0741
23,TACGAGGA,0.0793
24,ACAGATGT,0.0823
25,TCCACCGA,0.0714

row,Sequence,binding signal (normalized occupancy)
1,AGCAGAGG,0.0694
2,GACCAACA,0.0715
3,ACTACGAC,0.0671
4,AGCACGCA,0.0909
5,AAACGACA,0.076
6,AGGCCCTA,0.0692
7,AGCCCGGG,0.0644
8,GCGCCTTA,0.0728
9,ATACATCG,0.0796
10,ATCGGTGG,0.0729
11,TGCGTTAA,0.0729
12,ATGGATTG,0.0798
13,ACGGACTG,0.0704
14,ATCCAAAT,0.0802
15,GCGTGATA,0.1
16,AAATAGGT,0.0809
17,AATTTCCG,0.0694
18,AGCGTAAG,0.0684
19,CAAAGAGC,0.0689
20,ATGCCATG,0.0897
21,CACCCCTC,0.0876
22,AGAAACCA,0.0778
23,CGGATTTA,0.0745
24,CGCTCACC,0.0763
25,CGAACGGA,0.066

row,Sequence,binding signal (normalized occupancy)
1,TCCTAAGA,0.0773
2,GGGCAGCA,0.0719
3,ACGGTGAT,0.0774
4,GTCGGGGA,0.074
5,AGGTCAAG,0.0756
6,GAAGATGA,0.0785
7,GCCCGCCA,0.0684
8,TGGATCCA,0.0759
9,AGAGCCAT,0.0832
10,CGGTGGAA,0.0725
11,AGGCGAAC,0.0698
12,GACTTATC,0.0755
13,AAGCGTAT,0.0722
14,GATTATAA,0.0749
15,CACCCCGG,0.0778
16,AATTGTCC,0.0765
17,CCGTCCCG,0.0665
18,CCAAGGGA,0.0721
19,CTGTATCC,0.0783
20,AACGAAAG,0.068
21,AAGTTAAT,0.078
22,GTGGGTCA,0.0811
